Source: patent US10561143B2, “Fungicidal composition having synergistic effect” (JIANGSU HUIFENG AGROCHEMICAL CO., LTD., priority 2013, dated 2020)

Tested on: downy mildew pathogens of grape
Experiment: Toxicity test on downy mildew pathogens of grape (disease index and control effect on whole grape plants, EC50 and co-toxicity coefficient)
[1] = Table 7, standard benziothiazolinone
[2] = Table 10, standard printed as benziothiazolinone hydrochloride
[3] = Table 2, standard benziothiazolinone
[4] = Table 3, standard benziothiazolinone
[5] = Table 4, standard benziothiazolinone
[6] = Table 5, standard benziothiazolinone
[7] = Table 6, standard benziothiazolinone
[8] = Table 8, standard benziothiazolinone
[9] = Table 9, standard benziothiazolinone

C[C@@]1(c2ccc(Oc3ccccc3)cc2)OC(=O)N(Nc2ccccc2)C1=O (racemic) [Famoxadone]
ATI (actual toxicity index) [1]: 82.26

Cl.O=c1[nH]sc2ccccc12 [Benziothiazolinone hydrochloride]
ATI (actual toxicity index) [2]: 100

O=c1[nH]sc2ccccc12 [Benziothiazolinone]
ATI (actual toxicity index) [3]: 100
ATI (actual toxicity index) [4]: 100
ATI (actual toxicity index) [5]: 100
ATI (actual toxicity index) [6]: 100
ATI (actual toxicity index) [7]: 100
ATI (actual toxicity index) [1]: 100
ATI (actual toxicity index) [8]: 100
ATI (actual toxicity index) [9]: 100

O=C(Nc1ccccc1-c1ccc(Cl)cc1)c1cccnc1Cl [Boscalid]
ATI (actual toxicity index) [5]: 81.48

CSC1=N[C@@](C)(c2ccccc2)C(=O)N1Nc1ccccc1 [Fenamidone]
ATI (actual toxicity index) [6]: 82.86

O=[N+]([O-])c1cc(C(F)(F)F)c(Cl)c([N+](=O)[O-])c1Nc1ncc(C(F)(F)F)cc1Cl [Fluazinam]
ATI (actual toxicity index) [2]: 114.5

O=C(NCc1ncc(C(F)(F)F)cc1Cl)c1c(Cl)cccc1Cl [Fluopicolide]
ATI (actual toxicity index) [7]: 79.44

CO/C=C(/C(=O)OC)c1ccccc1COc1cccc(C(F)(F)F)n1 [Picoxystrobin]
ATI (actual toxicity index) [9]: 92.62

OC(Cc1ccccc1Cl)(Cn1nc[nH]c1=S)C1(Cl)CC1 (stereo not drawn) [Prothioconazole]
ATI (actual toxicity index) [4]: 75.79

CCC(C)(NC(=O)c1cc(Cl)c(C)c(Cl)c1)C(=O)CCl (stereo not drawn) [Zoxamide]
ATI (actual toxicity index) [3]: 81.9

COC(=O)N(OC)c1ccccc1COc1ccn(-c2ccc(Cl)cc2)n1 [pyraclostrobin]
ATI (actual toxicity index) [8]: 110.85
